Experimental data published in paper PMC6919601, “Identification of Plasmodium dipeptidyl aminopeptidase allosteric inhibitors by high throughput screening” (PLoS ONE, 2019).
Where “and” joins values, the source holds several entries; their conditions need not be identical. Equal values may be shown once. Out of some 110,000 compounds screened, about 230 (0.21%) showed an effect of 50% or more. The list shows a part of the results.

Molecular target: DPAP1 (Plasmodium falciparum, UniProt Q8IIJ9)
Sequence (Q8IIJ9 whole entry, looked up): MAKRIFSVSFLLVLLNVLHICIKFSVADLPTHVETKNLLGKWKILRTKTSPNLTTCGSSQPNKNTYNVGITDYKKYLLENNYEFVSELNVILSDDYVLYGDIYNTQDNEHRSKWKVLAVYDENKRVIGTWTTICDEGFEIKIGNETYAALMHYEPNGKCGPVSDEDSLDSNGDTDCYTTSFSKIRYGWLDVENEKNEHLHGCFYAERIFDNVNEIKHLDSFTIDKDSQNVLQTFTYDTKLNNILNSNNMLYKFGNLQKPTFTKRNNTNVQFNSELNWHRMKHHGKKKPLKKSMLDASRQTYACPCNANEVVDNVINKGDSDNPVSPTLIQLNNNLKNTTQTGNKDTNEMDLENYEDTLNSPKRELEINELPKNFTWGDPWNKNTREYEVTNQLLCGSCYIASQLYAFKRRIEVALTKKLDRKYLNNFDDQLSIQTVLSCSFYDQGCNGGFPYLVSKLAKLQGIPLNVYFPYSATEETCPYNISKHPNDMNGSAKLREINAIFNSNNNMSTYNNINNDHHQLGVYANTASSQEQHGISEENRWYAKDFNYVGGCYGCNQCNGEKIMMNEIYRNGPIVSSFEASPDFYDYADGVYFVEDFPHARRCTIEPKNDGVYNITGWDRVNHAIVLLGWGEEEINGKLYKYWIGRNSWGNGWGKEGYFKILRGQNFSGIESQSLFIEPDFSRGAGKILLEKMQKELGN
Experiment: primary screen, percent inhibition; read by cleavage of a fluorogenic dipeptide substrate; higher = more effect of the substance
Parameters: species or system P. falciparum D10 trophozoite lysates; single well
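Note: 30 min substrate incubation versus DMSO and 10 µM JCP410 controls.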

Row | Structure (SMILES) | % Inhibition @ 10 uM
1 | CCOC(=O)c1c(-c2ccccc2)csc1NC(=O)c1nc(SC)ncc1Cl | -1.11%
2 | CC1CCCC(NC(=O)C2CCC(C/N=c3/c(N4CCCC4)c(O)c3=O)CC2)C1C (stereo not shown) | 2.84%
3 | O=C(Cn1nc(Cc2cccnc2)c2ccccc2c1=O)NCCCN1CCOCC1 | 2.04%
4 | O=C(Nc1cccnc1)c1ccc(COc2ccccc2Br)cc1 | -0.891%
5 | C/C(=N\NC(N)=S)C1(C)CC2(CC(C)(C)OC2=O)C(=O)O1 (stereo not shown) | -0.169%
6 | c1ccc(-c2nnc3n2C2(CCCC2)Cc2ccccc2-3)cc1 | -6.82%
7 | COC(=O)c1ccc(-c2ccco2)n1CC(=O)NCc1cccc(Cl)c1 | -3.22%
8 | Cc1c(C(=O)N2CCOCC2)oc2ccc3c(c12)C(=O)CC(C)(c1ccc(Cl)cc1)O3 (stereo not shown) | -2.17%
9 | CC(=O)c1ccc(NC(=O)CCC(=O)Nc2ccc(C(C)=O)cc2)cc1 | 1.62%
10 | C#CCOc1c(Cl)cc(C2C(C#N)=C(N)OC3=C2C(=O)CCC3)cc1OC (stereo not shown) | 2.32%
11 | Cc1c(-c2nsc(NC(=O)c3cccs3)n2)nnn1-c1ccc(F)cc1F | -4.33%
12 | O=C1CCCN1CCCNc1nc2ccccc2c2nc(-c3cccnc3)nn12 | -4.21%
13 | NC(=O)C1CCCN(Cc2c(Cl)cccc2Cl)C1 (stereo not shown) | 0.265%
14 | O=C(c1ccc2c(Cl)c3c(nc2c1)CCC3)N1CCN(Cc2ccccc2)CC1 | -7.65%
15 | N#CC1=C(N)Oc2cc(N)ccc2C1c1cccc(Br)c1 (stereo not shown) | -3.13%
16 | Cc1ccc(OCC(=O)Nc2ccc(NC(=O)c3cccs3)cc2)c(C)c1 | -13.4%
17 | CCCOc1ccccc1C1C2=C(O)CCCC2=NC2=C1C(=O)CCC2 (stereo not shown) | -0.25%
18 | COc1ccc(OC)c(S(=O)(=O)N2CCN(C)CC2)c1 | 1.25%
19 | O=C(CN1CCCCC1)NCCNS(=O)(=O)c1ccccc1 | -3.74%
20 | CCOc1ccc(C(=O)Nc2ccc(N3CCN(S(C)(=O)=O)CC3)cc2)cc1 | -0.318%
21 | O/C(=C\c1nc2ccccc2nc1O)c1ccc(F)cc1 | -2.24%
22 | Cc1c(CCO)c2ccccc2n1Cc1ccccc1 | 0.00178%

Row | Structure (SMILES) | % Inhibition @ 10 uM
23 | Cc1nc2ccccc2n1CCc1nc2c3ccccc3nc(NCCN3C(C)CCCC3C)n2n1 (stereo not shown) | 0.981%
24 | Cc1ccnc(NC(=O)CCC(=O)N2Cc3ccccc3Oc3ncccc32)c1 | 4.36%
25 | CCOc1ccc(N2CC(C(=O)Nc3ccccc3C)CC2=O)cc1 (stereo not shown) | -4.68%
26 | Cc1nc(NC(=O)COc2ccc(Cl)cc2Cl)sc1C(=O)N(C)C | 0.907% and -0.305%
27 | COc1cccc2c1SCc1ccccc1C2CC(N)=O (stereo not shown) | -0.297%
28 | CCOC(=O)c1cnc2c(OC)cccc2c1N | 4.61%
29 | Cc1ccc(N2C(=O)C(Cl)=C(N3CCCCCC3)C2=O)c(C)c1 | -1.06%
30 | Cc1cc(C)c2ccc[n+]([O-])c2c1O | 2.79%
31 | Fc1ccc(/C=C/c2nc3ccccc3nc2N2CCOCC2)cc1 | -7.09%
32 | O=C(NCCC1=CCCCC1)c1csc2c1CCCC2 | -5.05%
33 | Cc1cccc(N2C(=O)NC(=O)/C(=C/Nc3cccc(C(=O)O)c3)C2=O)c1 | -3.03%
34 | CCNS(=O)(=O)c1ccccc1[N+](=O)[O-] | -0.999%
35 | O=C(CNCCCO)NC12CC3CC(CC(C3)C1)C2 | 7.2%
36 | O=C(CCn1nc(-c2ccccc2)c2ccccc2c1=O)N1CCOCC1 | -4.84%
37 | Cc1ccc(OCC(=O)Nc2ccc(Br)cc2)c(C)c1 | 0.52%
38 | Cc1ccccc1C(=O)c1cccn1CC(=O)NCc1ccccc1Cl | 1.15%
39 | OCCNc1nc(N2CCN(c3ccccc3)CC2)nc2ccccc12 | -2.76%
40 | Cc1nn(C(=O)c2sc3ccccc3c2Cl)c(C)c1Cl | -3.21%
41 | CCN(CC)CCN(C(=O)c1ccco1)c1nc2c(Cl)cccc2s1 | 2.75%
42 | Cc1cc(C)c2oc(C(=O)N(Cc3ccc(C(C)C)cc3)C3CCS(=O)(=O)C3)cc(=O)c2c1 (stereo not shown) | 6.56%
43 | O=C(NC1CCOCC1)N1CCN(c2ccccn2)CC1 | 0.635%
44 | O=C(Nc1ccccc1[N+](=O)[O-])c1cccc(S(=O)(=O)Nc2ccccc2)c1 | 7.8%

Row | Structure (SMILES) | % Inhibition @ 10 uM
45 | O=C(O)c1c(-c2ccccc2)oc(-c2ccccc2)c1C(=O)O | 0.147%
46 | O=C(Nc1cccc2ccccc12)C(=O)NC1CCCC1 | -1.75%
47 | CC(=O)Nc1c(Cl)c(Cl)c(NC(C)=O)c2[nH]nnc12 | 1.7%
48 | COc1ccc(-c2cc(C(=O)NCCCN3CCOCC3)no2)cc1 | 0.723%
49 | CCCCSc1nc2cc(OCC)ccc2[nH]1 | -1.36%
50 | Cc1cccc(C(=N)NOC(=O)c2c(-c3ccccc3Cl)noc2C)c1 | -1.33%
51 | O=C(Nc1cccc(Cl)c1)c1cccc(NC(=O)C(C(F)(F)F)C(F)(F)F)c1 | 1.88%
52 | COc1ccccc1C(=O)NC1CCS(=O)(=O)C1 (stereo not shown) | 2.03%
53 | COc1ccc([C@@H]2C(C#N)=C(N)S[C@H]2C(=O)c2ccccc2)cc1 | 2.45%
54 | CC1(C)CC(=O)C(C(C2=C(O)CC(C)(C)CC2=O)c2ccc3ccccc3c2)C(=O)C1 (stereo not shown) | 4.67%
55 | O=C1NC(=O)/C(=C\c2c[nH]c3ccccc23)N1 | -0.546%
56 | N#CC1=C(N)C(C#N)(C#N)C(c2cccc3ccccc23)C2CCCC=C12 (stereo not shown) | -4.24%
57 | COc1ccccc1-c1n[nH]c(N)n1 | -3.04%
58 | CCOCCO/C(O)=C1\C(C)=NC2=C(C(=O)CC(c3cccs3)C2)C1c1ccccc1OCC (stereo not shown) | 6.59%
59 | O=C(O)c1cccc(S(=O)(=O)N2CCCCCC2)c1 | 1.7%
60 | CC(C)(C)c1ccc(C(=O)N2CCN(C(c3ccccc3)c3ccccc3)CC2)cc1 | 2.78%
61 | CCc1ccc(CN2CCN(Cc3cccc(F)c3)CC2)cc1 | 3.79%
62 | Cc1ccc(OCC(=O)N(Cc2nc(-c3ccccc3)no2)C(C)C)c(Br)c1 | 1.38%
63 | CC(OCCN1CCCC1)(c1ccc(F)cc1)c1ccc(F)cc1 | -0.988%
64 | C=CCn1c(SC(C)C)nc2c1c(=O)n(C)c(=O)n2C | -6.36%
